# In PMC4336329 (PLoS ONE, 2015):
# About 14,000 (4.5%) of roughly 310,000 compounds showed an effect of 50% or more. The effect is printed as a negative number. The list shows a part of the results.
# Target: human ether-à-go-go-related gene (hERG) potassium channel (human, UniProt Q12809)
# Assay: primary screen, population patch clamp on CHO cells stably expressing hERG
# 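Note: peak tail current of the secondary pulse compared with the same well before compound.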
# Sequence of human ether-à-go-go-related gene (hERG) potassium channel (Q12809 whole entry, looked up): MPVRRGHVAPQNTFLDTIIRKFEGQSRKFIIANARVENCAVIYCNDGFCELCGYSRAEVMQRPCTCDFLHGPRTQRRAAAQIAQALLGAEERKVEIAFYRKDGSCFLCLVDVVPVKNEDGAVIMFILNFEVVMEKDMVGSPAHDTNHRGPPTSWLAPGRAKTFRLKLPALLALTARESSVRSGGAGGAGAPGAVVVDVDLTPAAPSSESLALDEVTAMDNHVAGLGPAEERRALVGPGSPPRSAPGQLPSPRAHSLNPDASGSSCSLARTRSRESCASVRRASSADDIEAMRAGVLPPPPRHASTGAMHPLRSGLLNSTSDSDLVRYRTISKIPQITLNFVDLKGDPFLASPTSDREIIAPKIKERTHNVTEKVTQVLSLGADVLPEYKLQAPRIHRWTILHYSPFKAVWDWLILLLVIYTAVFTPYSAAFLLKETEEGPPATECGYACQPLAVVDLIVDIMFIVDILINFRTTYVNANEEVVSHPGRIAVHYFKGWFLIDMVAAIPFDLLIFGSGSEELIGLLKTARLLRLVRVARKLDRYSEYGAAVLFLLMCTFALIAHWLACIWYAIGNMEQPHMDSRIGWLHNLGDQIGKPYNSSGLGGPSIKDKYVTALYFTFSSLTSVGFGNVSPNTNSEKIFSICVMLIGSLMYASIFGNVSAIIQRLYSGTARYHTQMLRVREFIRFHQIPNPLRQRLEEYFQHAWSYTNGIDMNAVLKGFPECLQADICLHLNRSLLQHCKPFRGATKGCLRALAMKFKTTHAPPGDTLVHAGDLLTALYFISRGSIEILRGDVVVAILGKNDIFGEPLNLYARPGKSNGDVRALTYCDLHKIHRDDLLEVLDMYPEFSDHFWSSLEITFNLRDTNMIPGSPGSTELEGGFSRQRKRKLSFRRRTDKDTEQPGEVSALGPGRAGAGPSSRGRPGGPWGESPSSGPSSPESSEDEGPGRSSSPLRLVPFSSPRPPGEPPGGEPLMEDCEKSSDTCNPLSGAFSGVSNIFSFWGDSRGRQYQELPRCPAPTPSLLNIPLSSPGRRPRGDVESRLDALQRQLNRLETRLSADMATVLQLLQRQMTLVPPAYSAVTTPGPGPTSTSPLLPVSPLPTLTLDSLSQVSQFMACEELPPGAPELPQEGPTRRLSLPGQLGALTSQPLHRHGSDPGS
row,Structure (SMILES),"hERG current change (%, negative = inhibition) at 10uM"
1,O=C(Cc1ccc(S(=O)(=O)N2CCOCC2)s1)N1CCN(S(=O)(=O)c2cccc(Cl)c2)CC1,-5.33%
2,Cc1ncc[nH]1,21.5%
3,Cc1ccc(NC(=O)CN2CCc3cc4c(cc3C2C)OCCCO4)cc1 (stereo not drawn),-14.2%
4,Cc1noc(C)c1CCC(=O)Nc1c(C(C)C)cccc1C(C)C,-28.6%
5,CC(C(=O)N=Nc1c(O)n(C)c2ccc(Br)cc12)n1cnc2ccccc2c1=O (stereo not drawn),1.18%
6,Cc1ccc(-c2ccc3nnc(SCC(=O)NCC4CCCO4)n3n2)cc1 (stereo not drawn),-3.04%
7,CC1CC(Nc2ccccc2)c2ccccc2N1C(=O)c1ccco1 (stereo not drawn),-6.29%
8,COc1cc2c(cc1NC(=O)c1cc(-c3cccnc3)nc3ccc(C)cc13)oc1ccccc12,8.86%
9,COc1cc(OC)cc(C(=O)NCCOC23CC4CC(CC(C4)C2)C3)c1,-28.4%
10,O=C(O)CCC(=O)Nc1ccc(N2CCCCCC2)cc1,11.1%
11,COc1cccc(C(N)=O)c1,8.86%
12,Cc1cnc(C(=O)Nc2ccccc2F)cn1,15%
13,CCCc1nc(NCCO)c(C#N)c2c1CCCC2,-18.9%
14,CCc1ccc(C(=O)NNC(=O)c2ccc3c(=O)n4c(nc3c2)CCC4)cc1,5.5%
15,COc1ccccc1OCC(=O)Nc1ccc(S(=O)(=O)Nc2cc(C)on2)cc1,19.1%
16,O=C(c1ccccc1Oc1nnnn1-c1ccccc1)N1CCOCC1,6.79%
17,COC(=O)c1ccccc1S(=O)(=O)N(Cc1ccco1)Cc1cc2cc(OC)ccc2[nH]c1=O,-11.2%
18,COc1ccc(C=O)cc1OC(=O)N1CCOCC1,6.45%
19,CC(C)CCn1c(=O)c2ccccc2n2c(CN3CCOCC3)nnc12,-11.9%

row,Structure (SMILES),"hERG current change (%, negative = inhibition) at 10uM"
1,O=C(Cn1cnc2ccccc2c1=O)N/N=C/c1ccc(Br)cc1,10.4%
2,O=C(N/N=C/C1CCCCC1)c1ccccn1,-2.21%
3,Cn1c(C(=O)NCCc2c[nH]c3ccccc23)cc2sccc21,-7.56%
4,COc1ccc2[nH]c3nc(SCC(=O)Nc4cccc(NC(C)=O)c4)nnc3c2c1,20.2%
5,COC(=O)c1c(C)oc2ccc(OC(=O)c3cccs3)cc12,-12.5%
6,c1ccc(Nc2nc(N3CCCC3)nc(N3CCCC3)n2)cc1,13.1%
7,CCCCNc1nc2c(c(=O)n(C)c(=O)n2C)n1Cc1cccc(OC)c1,-28.5%
8,O=C(NCc1ccco1)C1(c2ccc(Cl)cc2)CCCC1,1.27%
9,Cc1cc(NC(=O)C(C)SCC(=O)N(C)Cc2ccccc2F)no1 (stereo not drawn),-1.71%
10,CN1C(=O)C(C)(C)c2cc(S(=O)(=O)NCC3CCC(C(=O)NC4CCCCC4)CC3)ccc21 (stereo not drawn),-13%
11,O=C(CCc1nnc2ccc(NCc3ccco3)nn12)N1CCCCC1,15.1%
12,O=C(CN1C(=O)NC2(CCCCCC2)C1=O)c1ccc2c(c1)OCCO2,0.349%
13,COc1cccc(NC(=O)C(=O)NCCc2ccc(F)cc2)c1,3.58%
14,Clc1ccc(N2CCN(c3cnc4ccccc4n3)CC2)cc1,18.4%
15,O=C(O)C1=C[C@@H](c2ccc(C(F)(F)F)cc2)C[C@@H](OCCCCO)O1,12.6%
16,CCc1c(C)c2cc(Cl)c(O)c(CN(CC)CC)c2oc1=O,0.288%
17,Cc1cccc(N2CN(Cc3ccco3)CNC2=S)c1,5.21%
18,COc1ccc(C(=O)N/N=C(/C)c2ccc(N3CCCCC3)cc2)cc1,8.63%
19,CCOc1ccc(-n2c(=O)c3sccc3n(CC(=O)NCc3ccco3)c2=O)cc1,-2.54%

row,Structure (SMILES),"hERG current change (%, negative = inhibition) at 10uM"
1,CN1c2ccccc2C(O)=C(C(=O)Nc2ccccc2)S1(=O)=O,-4.37%
2,COCCN(C(=O)COC(=O)COc1ccc2c(c1)CCC2)c1c(N)n(Cc2ccccc2)c(=O)[nH]c1=O,16.9%
3,O=C(COCc1cc(-c2ccc3c(c2)OCO3)on1)N1CCN(c2ccccc2)CC1,0.048%
4,CC(/C=C/c1ccco1)=N\NC(=O)c1cc(C)[nH]n1,5.55%
5,CCOC(=O)c1cnn(-c2ccccc2)c1NC(=O)CSc1nnc(-c2cccs2)n1CC,-69.5%
6,O=C(Nc1cc(F)ccc1F)c1ccc(-n2cncn2)c([N+](=O)[O-])c1,-5.31%
7,O=C(Nc1nc(-c2ccc3c(c2)OCCO3)cs1)c1ccco1,8.53%
8,O=c1cc(Cn2ccnc2)c2cc(O)ccc2o1,19.9%
9,Cc1ccc(S(=O)(=O)N2CCC(C(=O)OCC(=O)N3CCC(C)CC3)CC2)cc1C,7.85%
10,COc1ccc2c3c([nH]c2c1)C1CC2C(CC(O)C(OC)C2C(=O)O)CN1CC3 (stereo not drawn),20.7%
11,COC(=O)c1ccc(COc2ccc(C3C4=C(CCCC4=O)Nc4onc(C)c43)cc2)cc1 (stereo not drawn),-9.61%
12,CCc1nnc(NC(=O)c2ccc(S(=O)(=O)N3CCOCC3)cc2)s1,-0.412%
13,COc1ccc(NS(=O)(=O)c2csc(C(N)=O)c2)cc1OC,20%
14,CCn1c(SCC(=O)NNC(=S)Nc2ccccc2)nnc1-c1ccc(Cl)cc1,-6.7%
15,COc1cc(C(=O)Nc2c(C)cc(C)cc2C)c(Br)c(OC)c1OC,1.92%
16,Cc1ccc(OCCCC(=O)N2CCOCC2)cc1,14.9%
17,Cc1ccc(C(=O)NC(NC(=O)c2ccc(C)cc2)c2cccc([N+](=O)[O-])c2)cc1.O,5.51%
18,CCO[C@H]1OC(C(=O)O)=C[C@@H](c2cn(C(C)=O)c3ccccc23)[C@@H]1CCCO,18.2%
19,O=C(CCc1ccccc1)NC(=S)Nc1ccccc1Br,19.9%
